In publication PMC6919601, “Identification of Plasmodium dipeptidyl aminopeptidase allosteric inhibitors by high throughput screening” (PLoS ONE, 2019):
Where “and” joins values, the source holds several entries; their conditions need not be identical. Identical values can stand only once. In all, about 110,000 compounds went through this assay and about 230 (0.21%) showed an effect of 50% or more. The list shows a part of the results.

Biological target: DPAP1 (Plasmodium falciparum, UniProt Q8IIJ9)
Experiment: primary screen, percent inhibition; read by cleavage of a fluorogenic dipeptide substrate; higher = more effect of the substance
Design: species or system P. falciparum D10 trophozoite lysates; single well
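Further: 30 min substrate incubation versus DMSO and 10 µM JCP410 controls.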

Sequence of DPAP1 (Q8IIJ9 whole entry, looked up): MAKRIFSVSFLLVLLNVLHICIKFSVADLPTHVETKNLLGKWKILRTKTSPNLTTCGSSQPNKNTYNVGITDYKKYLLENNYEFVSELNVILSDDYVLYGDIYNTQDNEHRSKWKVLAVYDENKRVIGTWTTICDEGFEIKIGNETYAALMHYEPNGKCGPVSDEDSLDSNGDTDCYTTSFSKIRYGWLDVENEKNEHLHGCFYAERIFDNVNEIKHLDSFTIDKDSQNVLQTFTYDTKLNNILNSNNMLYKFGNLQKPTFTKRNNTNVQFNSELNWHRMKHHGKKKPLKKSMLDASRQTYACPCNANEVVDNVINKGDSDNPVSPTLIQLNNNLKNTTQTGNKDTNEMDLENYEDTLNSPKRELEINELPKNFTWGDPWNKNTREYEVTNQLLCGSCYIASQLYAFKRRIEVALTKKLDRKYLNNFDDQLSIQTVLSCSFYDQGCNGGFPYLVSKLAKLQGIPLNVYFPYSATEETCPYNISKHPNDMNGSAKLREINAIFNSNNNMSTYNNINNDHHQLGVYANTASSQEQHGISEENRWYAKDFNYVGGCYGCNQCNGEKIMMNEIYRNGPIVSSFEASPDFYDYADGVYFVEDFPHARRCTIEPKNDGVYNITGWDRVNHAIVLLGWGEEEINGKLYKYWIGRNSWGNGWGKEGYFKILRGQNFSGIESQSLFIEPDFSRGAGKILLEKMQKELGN

| SMILES | % Inhibition @ 10 uM |
| --- | --- |
| C=CCn1cc(C=C2C(=O)N(C)C(=O)N(C)C2=O)c2ccccc21 | -3.21% |
| CCN(CC)C(=O)C1CCCN(Cc2ccc(N(C)C)cc2)C1 (stereo not shown) | -4.5% |
| Cc1ccc(CNC(=O)c2cc(O)nc3ccc(Br)cc23)cc1 | 4.81% |
| C=C(CC)CC(NC(=O)OCc1ccccc1)C(=O)NCC#N (stereo not shown) | -1.41% |
| COc1cc(/C=C2/N=C(c3ccc(-c4ccccc4)cc3)OC2=O)cc(OC)c1OC | 0.607% |
| COCCC/N=C/C1=C(O)CC(c2ccccc2)CC1=O (stereo not shown) | -2.8% |
| NS(=O)(=O)c1ccc(CCNC(=O)C2c3ccccc3Oc3ccccc32)cc1 | -3.41% |
| COc1cc(C2c3c(-c4ccccc4O)n[nH]c3C(=O)N2CCO)ccc1O (stereo not shown) | -1.35% |
| COc1ccccc1/C=C/c1nc(C#N)c(NCc2ccco2)o1 | -2.57% |
| CCN(CC)S(=O)(=O)c1ccc(NC(=O)c2ccccc2Oc2ccccc2)cc1 | -7.25% |
| Cc1cc(C)n2nc(CNS(=O)(=O)c3cccc(C#N)c3)nc2n1 | 1.22% |
| CC(=O)Nc1ccc(NC(=O)c2ccc(-c3ccc(Br)cc3)o2)cc1 | -1.77% |
| CS(=O)(=O)N1N=C(c2ccc(Cl)cc2)CC1c1ccc(Cl)cc1 (stereo not shown) | -6.37% |
| CCNCC(O)COCC(O)CNCC (stereo not shown) | -1.74% |
| CCN(CC)CCN1CCn2c3c(c4cc(C)ccc42)CCCC31 (stereo not shown) | 8.68% and 0.266% |
| COc1ccc2c(C)c(CC(=O)N3CCOCC3)c(=O)oc2c1 | 0.895% |
| Cc1cc(CO)c(C)n1-c1ccccc1 | 4.32% |
| Cc1cc(C)n(-c2nc(C)nc(N)n2)n1 | 3.76% |
| CCCCOc1ccc(C(=O)OCC(=O)c2ccc(Cl)cc2)cc1 | -3.48% |
| O=C(CN1Cc2ccccc2C1=O)NCCN1CCC(Cc2ccccc2)CC1 | 1.86% |
| CCCC(=O)Nc1ccc(C(=O)NCc2ccc(OC)cc2)cc1 | 5.15% |
| O=S(=O)(NCC1CCCO1)c1cc(Cl)ccc1Br (stereo not shown) | 3.05% |
| Cn1c(=O)n(C)c2cc(C3Nc4ccc5ccccc5c4C4=C3C(=O)CC(C)(C)C4)ccc21 (stereo not shown) | 11% |
| Cc1cccc(-c2noc(CN(C(=O)COc3cc(C)cc(C)c3C)C(C)C)n2)c1 | -5.26% |
| COc1ccc(C(=N)NOC(=O)c2ccco2)cc1OC | -8.87% |
| CCOc1cc(Br)c(C(C)NC(=O)c2ccco2)cc1OCC (stereo not shown) | -3.32% |
| COc1ccc(CNC(=O)Cn2ccc3cc(S(=O)(=O)N4CCCC4)ccc32)cc1OC | 3.3% |
| Cc1cc(Br)ccc1S(=O)(=O)Oc1cccc2cccnc12 | 0.0719% |
